Reference: PubChem BioAssay AID720584 (National Center for Advancing Translational Sciences (NCATS), 2013)
Inconclusive means that the source gave no clear call. Such entries were picked first, then a sample of the others. Potencies of inconclusive entries are left out as doubtful fits. The source made the active and inactive calls. Calls come from the whole dose curve; as a rule, active = well fitted inhibition curve with a large enough effect; inconclusive = small, poorly fitted or top-dose-only effect; inactive = flat fitted curve, though single readings scatter.

Tested on: Trypanosoma brucei pyruvate kinase (TbPYK)
Assay: qHTS of Trypanosoma Brucei Inhibitors: Orthogonal Assay for Cherry-picked Compounds; note: nearly all actives have a fitted effect of over 75% in size
Details: recombinant TbPYK, ADP-Glo luminescence, 60 min; activity change, negative = inhibition: at 76.9 µM (top of the series)
Outline: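 Recombinant T. brucei pyruvate kinase was reacted with 130 uM ADP (final) for 60 min at room temperature. The buffer was 50 mM TEA pH 7.2, 100 mM KCl, 10 mM MgCl2, 0.05% BSA and 0.01% Tween-20. Remaining ADP was measured by ADP-Glo luminescence.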
% is set by controls: 0 for no effect and ±100 for the full control effect; potency is the fitted concentration of half-maximal effect; tags give direction and shape of the fitted curve.

| Compound | Potency | activity change, negative = inhibition |
| --- | --- | --- |
| O=C1NC(=S)N(C2CC2)C(=O)/C1=C/c1ccc2c(c1)CCN2CCCCl | inconclusive [inhibitor, partial curve] | – |
| Cc1cc(N2CCCCC2)ccc1C=C1C(=O)N(C)C(=S)N(C)C1=O | inconclusive [inhibitor, partial curve, poor fit] | – |
| CCOc1ccccc1N1C(=O)NC(=O)/C(=C/c2ccc3c4c(cccc24)CC3)C1=O | inconclusive [inhibitor, partial curve] | – |
| CSc1ncc(/C=C2/C(=O)NC(=O)N(C)C2=O)cn1 | inconclusive [inhibitor, partial curve] | – |
| COc1cc(/C=C2\C(=O)NC(=O)N(c3ccccc3)C2=O)c([N+](=O)[O-])cc1OC | active: 35.5 µM | – |
| O=C1NC(=O)N(c2ccccc2)C(=O)/C1=C/c1coc2ccc(O)cc2c1=O | inconclusive [inhibitor, partial curve] | – |
| Cn1cccc1/C=C1/C(=O)NC(=S)N(Cc2ccc(F)cc2)C1=O | inconclusive [inhibitor, full curve] | – |
| O=C(O)CCn1cc(C=C2C(=O)NC(=S)NC2=O)c(-c2cccc(Br)c2)n1 | inconclusive [inhibitor, partial curve] | – |
| Cc1cccc2c1=NC(=O)/C(=C/c1c(O)[nH]c(=O)[nH]c1=O)C=2 | inconclusive [inhibitor, partial curve] | – |
| CN1C(=O)NC(=O)/C(=C/c2ccc([N+](=O)[O-])o2)C1=O | inconclusive [inhibitor, partial curve] | – |
| O=C(CCn1c(=O)oc2ccccc21)N1CCC2(CC1)OCCO2 | inactive | – |
| O=C1NC(=O)N(c2ccc(F)cc2)C(=O)/C1=C/c1ccc(N2CCOCC2)cc1 | inconclusive [inhibitor, partial curve] | – |
| O=C1NC(=O)C(=Cc2ccc(-c3ccccc3[N+](=O)[O-])o2)C(=O)N1 | inconclusive [inhibitor, single point] | – |
| Cc1nn(Cc2ccccc2)c(C)c1C=C1C(=O)NC(=S)NC1=O | inconclusive [inhibitor, partial curve] | – |
| COC(=O)COc1ccc(/C=C2\C(=O)NC(=S)N(c3ccc(C)cc3)C2=O)cc1OC | inconclusive [inhibitor, full curve] | – |
| O=C1NC(=O)N(Cc2ccccc2)C(=O)/C1=C\c1ccco1 | inconclusive [inhibitor, partial curve] | – |
| COC(=O)C1=C(C(=O)OC)SC2(S1)C(C(=O)OC)=C(C(=O)OC)Sc1c2ssc1=O | active: 14.1 µM | – |
| O=C1NC(=O)N(c2cccc(Br)c2)C(=O)/C1=C/c1ccsc1 | inconclusive [inhibitor, partial curve] | – |
| CCN(CC)C(=O)c1ccc2c(c1)C1C=CCC1C(C(=O)O)N2 (stereo not drawn) | inconclusive [inhibitor, full curve] | – |
| COc1ccc(CN2C(=O)NC(=O)/C(=C\c3ccco3)C2=O)cc1 | inconclusive [inhibitor, partial curve] | – |
| COc1ccc(N2C(=O)/C(=C/c3ccc(N(C)C)o3)C(=O)NC2=S)cc1 | inconclusive [inhibitor, partial curve] | – |
| CCN1C(=O)/C(=C/c2ccc3c(c2)CCN3CCCCl)C(=O)NC1=S | – | inconclusive: -4.54% [inhibitor] |
| CCOC(=O)[C@]12Cc3ccccc3[C@H]1N(C(C)C)C(=O)c1ccccc12 | active: 31.6 µM | – |
| COc1cc(/C=C2\C(=O)NC(=O)N(c3ccccc3)C2=O)cc(OC)c1OC | inconclusive [inhibitor, partial curve] | – |
| CCN1CCN(c2ccc([N+](=O)[O-])cc2C=C2C(=O)NC(=O)NC2=O)CC1 | inconclusive [inhibitor, partial curve] | – |
| Cc1cc(C=C2C(=O)N(C)C(=S)N(C)C2=O)c(C)n1-c1cccnc1 | inconclusive [inhibitor, partial curve] | – |
| COc1ccc(N2C(=O)NC(=O)/C(=C/c3ccc([N+](=O)[O-])s3)C2=O)cc1 | active: 12.6 µM | – |
| COc1ccccc1N1C(=O)NC(=O)/C(=C/c2ccc([N+](=O)[O-])s2)C1=O | inconclusive [inhibitor, full curve] | – |
